The results in this text go back to PubChem BioAssay AID485344 (National Center for Advancing Translational Sciences (NCATS), 2010).

SMILES strings stand for the structures. Screen size: about 340,000 compounds; about 6,900 (2%) were called active. Rule as the data show it: active = inhibition above about 30%; inactive = below that, where a call was filed. The entries are a selection whose mix differs from that of the whole data set. The source gives no active or inactive call for entries shown without one.

UniProt P14416, sequence (P14416 whole entry, looked up): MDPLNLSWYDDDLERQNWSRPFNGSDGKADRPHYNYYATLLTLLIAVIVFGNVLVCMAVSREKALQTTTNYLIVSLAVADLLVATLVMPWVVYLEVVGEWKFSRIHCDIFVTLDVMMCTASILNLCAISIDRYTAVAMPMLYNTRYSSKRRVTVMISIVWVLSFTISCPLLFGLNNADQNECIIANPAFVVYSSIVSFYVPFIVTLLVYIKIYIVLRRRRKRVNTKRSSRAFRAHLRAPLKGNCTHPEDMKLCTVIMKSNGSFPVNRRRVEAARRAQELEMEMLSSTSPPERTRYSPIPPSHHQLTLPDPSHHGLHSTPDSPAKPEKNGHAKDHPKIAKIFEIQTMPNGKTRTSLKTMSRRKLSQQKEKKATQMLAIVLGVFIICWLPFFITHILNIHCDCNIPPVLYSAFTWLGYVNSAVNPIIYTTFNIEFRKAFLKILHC

For the experiment, the target named is D(2) dopamine receptor (Homo sapiens) (UniProt P14416). As to the kind of experiment: HTS Assay for Allosteric Antagonists of the Human D2 Dopamine Receptor: Primary Screen for Antagonists. Also: 0% is about no effect. As to conditions: HEK293 TREx D2 cells, calcium flux, dopamine EC80; at 10 µM; stronger effect = higher value. In outline:
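Calcium flux kinetic readout in an inducible HEK293 TREx D2 line plated overnight at 30 C. After 180 s compound exposure, an EC80 dopamine challenge follows with another 180 s kinetic read to detect antagonism.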
With `Cc1cc2oc(C(=O)N(Cc3ccco3)Cc3ccccc3Cl)c(C)c2cc1C`, the inhibition (as a rule, the drop in the measured response relative to a control, in per cent) came to 4.07%. The same measure for `Cc1ccc(SCC(=O)Nc2ccc3oc(-c4ccccc4F)nc3c2)cc1`: -4.11%.

For the molecule `CCOC(=O)c1ccccc1NC(=O)c1cnc(N2CCOCC2)c2ccccc12`, the inhibition is 27.1%.

In the case of `COc1ccc(NC(=O)c2nc(-c3ccc(C)cc3)n3c2CCCCC3)c(OC)c1`, the inhibition turned out to be 17.1%. On to `CCc1cccc(C)c1NC(=O)c1cnn(-c2ccc(OC)cc2)c1C1CCN(C(=O)OC(C)(C)C)CC1`, for which the inhibition came out at 2.96%.

On to `CCOC(=O)CNC(=O)c1cc2c(=O)n3cccc(C)c3nc2n1C`, for which the inhibition is 15.1%. The same measure for `CCc1nn2c(=O)c(S(=O)(=O)Nc3ccc(C)c(C)c3)c(C)nc2s1`: -4.83%; for `CC(C)Oc1ccc(CNC(=O)c2ccc(NC(=O)N3CC(C)Sc4ccccc43)cc2)cc1` (configuration not stated): -1.33%; for `O=C(/C=C/c1ccccc1)Nc1nc2n(n1)C(c1ccc(F)cc1)C=C(c1ccccc1)N2` (configuration not stated): -6.49%. The figure for `CC1CCc2onc(C(=O)N3CCN(c4cccc(Cl)c4)CC3)c2C1` (configuration not stated) is 11.5%; for `CC(=O)Oc1ccc2c(c1)Oc1cc(OC(C)=O)ccc1C21OC(=O)c2ccccc21` it is active: 83.5%. As to `Cc1cc(Br)cc2c1N(Cc1ccccc1OC(C)C)C(=O)C2=O`, the inhibition is -2.24%. The same measure for `Cc1cc(C)c(S(=O)(=O)NCC(c2ccco2)S(=O)(=O)c2cccs2)c(C)c1` (configuration not stated): 19.2%; for `Cc1ccc(NC(=O)Nc2cc(S(=O)(=O)N(C)C)ccc2C)cc1`: active: 37%. On to `CCc1cnc2c(c1SCC(=O)Nc1ccc(C(=O)OC)cc1)c(=O)n(C)c(=O)n2C`, for which the inhibition worked out at 8.47%. Take `Cc1ccc2c(c1)cc(C(=O)NCc1ccccc1C)n2C`: the inhibition was 6.21%. The figure for `CC(C)Oc1ccc(CNC(=O)C2CCN(Cc3cc4ccccc4n3Cc3ccccc3)CC2)cc1` is -3.37%. The same measure for `COc1cc(CN2CCC(C(=O)N3CCN(c4ccccc4F)CC3)CC2)cc(OC)c1O`: active: 33.7%.

On to `CC(C)(C)c1ccc(OCCOCCn2c(-c3ccc(Cl)cc3)nc3ccccc3c2=O)cc1`, for which the inhibition is -2.73%. Consider `O=C(COC(=O)c1cccc(NC(=O)c2ccc(Br)cc2)c1)c1ccc(Cl)cc1`, for which the inhibition was 7%. The same measure for `Cc1cccc(Cn2c(COc3ccccc3)nc3ccccc32)c1`: -1.88%; for `CCn1c2ccccc2c2cc(NC(=O)COc3cc(C)ccc3C)ccc21`: 6.67%.

For `COc1ccc(CCNC(=O)c2cc(=O)c3ccc(C)cc3o2)cc1OC`, the inhibition was -2.92%. For `CCCCCn1c(=O)[nH]c2cc(C(=O)NC(C)CC)ccc2c1=O` (configuration not stated), the inhibition was 7.58%. The same measure for `CCOc1ccc(CNC(=O)c2ccc3c(c2)nc2n3CCCCC2)cc1`: -5.32%; for `COc1ccc(C(=O)Nc2ccc3oc(-c4cccnc4)nc3c2)cc1OC`: 14.4%; for `C=C1CC(C)OC(c2ccccc2OCC(O)CN2CCCCC2)C1` (configuration not stated): active: 65.1%. The figure for `COCCn1c(=O)[nH]c2cc(C(=O)Nc3ccc(OC)cc3)ccc2c1=O` is 10.5%; for `Cc1cc(C)n(-c2nc3ccccc3nc2Nc2cc(Cl)ccc2C)n1` it is 15.7%. As to `Cc1cc(C)c2nc(N(Cc3cccnc3)C(=O)Cc3ccccc3)sc2c1`, the inhibition stood at 2.15%. Regarding `CC(CCN1CCN(c2ccc(F)cc2)CC1)c1ccccc1` (configuration not stated), the inhibition was active: 87.7%. The figure for `Cc1cc(NC(=O)Nc2nnc(N3CCCCC3)s2)ccc1Br` is -17.6%; for `CCN(Cc1ccccc1)C(=O)Cn1c(=O)n(-c2ccc(Cl)c(Cl)c2)c(=O)c2c(C)c(C(=O)N(C)C)sc21` it is 26.9%. The figure for `COc1ccccc1CNC(=O)CSc1nc(=O)[nH]c2c1CCCC2` is 26.5%. On to `Cc1ccc(NC(=O)CCn2c(=O)c3cccn3c3ccccc32)cc1Cl`, for which the inhibition was 2.14%. The figure for `COc1ccc(N2CC(NC(=O)C(=O)c3c(C)[nH]c4ccccc34)CC2=O)cc1` (configuration not stated) is -15.2%. The figure for `COc1cc(OC)c(NC(=O)Cn2cnc3sc(C)c(S(=O)(=O)N4CCC(C)CC4)c3c2=O)cc1Cl` is 0.618%. The same measure for `COc1ccc(-c2nc3ccc(Cl)cn3c2Nc2ccc(C)cc2)cc1`: -11.5%; for `COc1ccc(OCC2c3cc(OC)c(OC)cc3CCN2C(=O)c2c(F)cccc2F)cc1` (configuration not stated): 9.15%; for `CCc1ccc(-n2nc(CO)c(C(=O)NCc3cccs3)n2)cc1`: -5.49%.

With `Cc1cc(C)cc(NC(=O)COCc2cc(-c3ccc4c(c3)OCO4)on2)c1`, the inhibition was 6.21%. For the molecule `COc1cccc(-c2nc(CS(=O)(=O)CC(=O)NCCc3ccc(Cl)cc3)c(C)o2)c1`, the inhibition was -3.79%. As to `Cc1ccc(-n2ncc3c(Nc4cccc(C(F)(F)F)c4)ncnc32)cc1C`, the inhibition was -10.5%. The same measure for `Cc1cc2c(cc1S(=O)(=O)NCc1ccccc1Cl)OCC(=O)N2`: 14.3%; for `CC1CCCCN1C(=O)CSc1c2c(nc3cc(Cl)ccc13)CCCC2` (configuration not stated): 10.3%; for `CCOCCn1c(=O)c2c(nc3n2CCN3c2ccc(C)c(C)c2)n(C)c1=O`: 7.39%. `CCN1CCN(c2nc(Nc3cccc(C)c3)nc(N)c2[N+](=O)[O-])CC1`: the inhibition was active: 84.9%. The figure for `COc1cccc(N2CCN(C(=O)C3CCN(S(=O)(=O)c4cn(C)cn4)CC3)CC2)c1` is 2.38%. On to `NS(=O)(=O)c1ccc(NC(=O)c2csnn2)cc1`, for which the inhibition was -16.7%. On to `CC(C)c1ccc(NC(=O)c2cnc3sc(N4CCOCC4)nn3c2=O)cc1`, for which the inhibition was -5.91%.

With `COc1ccc(NC(=O)CN(C)S(=O)(=O)c2ccc3c(c2)c(=O)n(C)c(=O)n3C)cc1`, the inhibition was 9.93%. On to `COc1ccc(OC)c(NC(=O)Cn2cnc3onc(-c4ccc(Cl)cc4)c3c2=O)c1`, for which the inhibition is -1.27%. The figure for `COCCn1c(C)cc(O)c(C(c2ccc(OC)cc2)N2CCN(c3ccccc3)CC2)c1=O` (configuration not stated) is -4.3%. In the case of `Cc1ccc(C)c(-n2nnc(C(=O)Nc3ccc(Br)cc3)c2C)c1`, the inhibition was -5.67%. Consider `COc1ccc(CCNC(=O)c2cc(=O)[nH]c3ccc(S(=O)(=O)N4CCCCC4C)cc23)cc1OC` (configuration not stated), for which the inhibition was -25.1%. The figure for `COc1cc(CCC(=O)OCC(=O)Nc2ccc(C(N)=O)cc2)cc(OC)c1OC` is active: 38.6%; for `CCOCCCNC(=O)c1c(NC(=O)c2nc(SC)ncc2Cl)sc2c1CCCC2` it is 4.96%; for `Cc1cn2c(=O)cc(COC(=O)c3ccc(NC(=O)C(C)Oc4ccccc4)cc3)nc2s1` (configuration not stated) it is -14.2%.

As to `COc1ccc(OC)c(NC(=O)CCNC(=O)Cn2cnc3ccccc3c2=O)c1`, the inhibition amounted to 3.01%. The same measure for `O=C(NCCc1ccccc1)c1nn(-c2ccccc2Cl)nc1CO`: -24.9%. On to `O=C(Nc1cc(Cl)cc(Cl)c1)c1cc(S(=O)(=O)N2CCC3(CC2)OCCO3)ccc1F`, for which the inhibition was -2.38%. Take `Fc1ccc(Nc2c(-c3ccccn3)nc3ccc(Cl)cn23)cc1`: the inhibition was -16.6%.
